Test results reported in a collection of fitness landscapes (doi:10.1126/science.1257360).
This is one part of the list.

B1: PhoQ; a variant is named by its letters at X, in order, P23837 (parent)
chain: MKKLLRLFFPLSLRVRFLLATAAVVLVLSLAYGMVALIGYSVSFDKTTFRLLRGESNLFYTLAKWENNKLHVELPENIDKQSPTMTLIYDENGQLLWAQRDVPWLMKMIQPDWLKSNGFHEIEADVNDTSLLLSGDHSIQQQLQEVREDDDDAEMTHSVAVNVYPATSRMPKLTIVVVDTIPVELKSSYMVWSWFIYVLSANLLLVIPLLWVAAWWSLRPIEALAKEVRELEEHNRELLNPATTRELTSLVRNLNRLLKSERERYDKYRTTLTDLTHSLKTPLXXLQXXLRSLRSEKMSVSDAEPVMLEQISRISQQIGYYLHRASMRGGTLLSRELHPVAPLLDNLTSALNKVYQRKGVNISLDISPEISFVGEQNDFVEVMGNVLDNACKYCLEFVEISARQTDEHLYIVVEDDGPGIPLSKREVIFDRGQRVDTLRPGQGVGLAVAREITEQYEGKIVAGESMLGGARMEVIFGRQHSAPKDE

Variants of: B1
Assay: enrichment ratio after two sorts for PhoP signalling (ratio (wild type AVST 3.29)); higher = more functional
Conditions: with PhoP (E. coli)

| Variant | enrichment ratio |
| --- | --- |
| KVAA | ≤ 0.25 |
| GCMN | 4.94 |
| TCKW | ≤ 0.25 |
| EKNH | ≤ 0.25 |
| NPEY | ≤ 0.25 |
| LPQQ | ≤ 0.25 |
| QKFN | ≤ 0.25 |
| NNHI | ≤ 0.25 |
| WTSG | ≤ 0.25 |
| MVDY | ≤ 0.25 |
| DRQY | ≤ 0.25 |
| PDRD | ≤ 0.25 |
| NDVF | ≤ 0.25 |
| KRNA | ≤ 0.25 |
| DSFV | ≤ 0.25 |
| TWVF | ≤ 0.25 |
| SMIY | ≤ 0.25 |
| KADK | ≤ 0.25 |
| NDGR | ≤ 0.25 |
| PLML | ≤ 0.25 |
| EPNL | ≤ 0.25 |
| AESY | 6.75 |
| EPHL | ≤ 0.25 |
| TGIY | ≤ 0.25 |

| Variant | enrichment ratio |
| --- | --- |
| FKDH | ≤ 0.25 |
| KQSS | ≤ 0.25 |
| KMCK | ≤ 0.25 |
| PHHH | ≤ 0.25 |
| KFND | ≤ 0.25 |
| KNKT | ≤ 0.25 |
| RKCC | ≤ 0.25 |
| LRKH | ≤ 0.25 |
| YMYD | ≤ 0.25 |
| DLKN | ≤ 0.25 |
| VWKC | ≤ 0.25 |
| KPFF | ≤ 0.25 |
| FTWQ | ≤ 0.25 |
| PYRL | ≤ 0.25 |
| MLHS | ≤ 0.25 |
| EELC | ≤ 0.25 |
| SIGH | 5.91 |
| SMGI | 7.04 |
| EGSA | ≤ 0.25 |
| DRPK | ≤ 0.25 |
| EHTS | ≤ 0.25 |
| NDRT | ≤ 0.25 |
| VWSS | ≤ 0.25 |
| VHHY | ≤ 0.25 |

| Variant | enrichment ratio |
| --- | --- |
| RSGQ | ≤ 0.25 |
| SIST | 9.25 |
| VDIA | ≤ 0.25 |
| GQRH | ≤ 0.25 |
| FFYV | ≤ 0.25 |
| ITRR | ≤ 0.25 |
| PIRY | ≤ 0.25 |
| QFAQ | ≤ 0.25 |
| FYCE | ≤ 0.25 |
| AQNF | 1.47 |
| VNPR | ≤ 0.25 |
| QHPQ | ≤ 0.25 |
| GHTK | ≤ 0.25 |
| FHRG | ≤ 0.25 |
| WDFC | ≤ 0.25 |
| NAHG | ≤ 0.25 |
| HLTA | ≤ 0.25 |
| AAAA | ≤ 0.25 |
| DHWT | ≤ 0.25 |
| PYQA | ≤ 0.25 |
| ICSI | ≤ 0.25 |
| DRHS | ≤ 0.25 |
| TQEF | ≤ 0.25 |
| NFWD | ≤ 0.25 |

| Variant | enrichment ratio |
| --- | --- |
| EANK | ≤ 0.25 |
| KPST | ≤ 0.25 |
| LHPM | ≤ 0.25 |
| ETPV | ≤ 0.25 |
| PDVM | ≤ 0.25 |
| CHLR | ≤ 0.25 |
| VLQP | ≤ 0.25 |
| GLQR | ≤ 0.25 |
| VEFN | ≤ 0.25 |
| QGQS | ≤ 0.25 |
| AMGL | 2.85 |
| HMGS | ≤ 0.25 |
| WKRY | ≤ 0.25 |
| YYKT | ≤ 0.25 |
| HQHF | ≤ 0.25 |
| PNRL | ≤ 0.25 |
| PYLS | ≤ 0.25 |
| RWPC | ≤ 0.25 |
| SAET | ≤ 0.25 |
| AGCL | 15.2 |
| QYPN | ≤ 0.25 |
| DPLC | ≤ 0.25 |
| NHNQ | ≤ 0.25 |
| HRTL | ≤ 0.25 |

| Variant | enrichment ratio |
| --- | --- |
| SHFT | ≤ 0.25 |
| WGQL | ≤ 0.25 |
| SEDY | ≤ 0.25 |
| DSVI | ≤ 0.25 |
| VLLA | ≤ 0.25 |
| PYWT | ≤ 0.25 |
| RTEY | ≤ 0.25 |
| WGTR | ≤ 0.25 |
| WLPW | ≤ 0.25 |
| SLRC | 0.977 |
| TYFH | ≤ 0.25 |
| EITD | ≤ 0.25 |
| KIWA | ≤ 0.25 |
| FDIQ | ≤ 0.25 |
| DVFH | ≤ 0.25 |
| TDPN | ≤ 0.25 |
| LNNA | ≤ 0.25 |
| EYQC | ≤ 0.25 |
| SFGK | ≤ 0.25 |
| TMYV | ≤ 0.25 |
| PPAS | ≤ 0.25 |
| FWPP | ≤ 0.25 |
| YNPF | ≤ 0.25 |
| QPYD | ≤ 0.25 |

| Variant | enrichment ratio |
| --- | --- |
| MFWF | ≤ 0.25 |
| TSNN | 12.2 |
| ALAW | 5.81 |
| GPPW | ≤ 0.25 |
| RHDP | ≤ 0.25 |
| VEMD | ≤ 0.25 |
| MMWS | ≤ 0.25 |
| GFKG | ≤ 0.25 |
| IHRT | ≤ 0.25 |
| SEHE | ≤ 0.25 |
| AMAT | 3.36 |
| GSHD | ≤ 0.25 |
| TPYY | ≤ 0.25 |
| VIRC | ≤ 0.25 |
| PENP | ≤ 0.25 |
| PSEI | ≤ 0.25 |
| TETE | 18.8 |
| GIWR | ≤ 0.25 |
| WYLN | ≤ 0.25 |
| RSER | ≤ 0.25 |
| DYSC | ≤ 0.25 |
| YQCT | ≤ 0.25 |
| NGRT | ≤ 0.25 |
| KHNC | ≤ 0.25 |

| Variant | enrichment ratio |
| --- | --- |
| SCPM | 7.6 |
| FKSE | ≤ 0.25 |
| ALRI | ≤ 0.25 |
| DSPS | ≤ 0.25 |
| FHGN | ≤ 0.25 |
| TRDC | ≤ 0.25 |
| VMVE | ≤ 0.25 |
| RVMY | ≤ 0.25 |
| RRKT | ≤ 0.25 |
| QKDF | ≤ 0.25 |
| SQGI | 2.38 |
| KAHE | ≤ 0.25 |
| MAKQ | ≤ 0.25 |
| HIGM | ≤ 0.25 |
| NFHV | ≤ 0.25 |
| ATVA | 1.05 |
| DAVM | ≤ 0.25 |
| EDFW | ≤ 0.25 |
| FNHL | ≤ 0.25 |
| NPQH | ≤ 0.25 |
| VLFK | ≤ 0.25 |
| MGFC | 14.4 |
| WNKA | ≤ 0.25 |
| TQIT | ≤ 0.25 |

| Variant | enrichment ratio |
| --- | --- |
| YCCC | 0.444 |
| SLVS | 1.29 |
| WTCL | ≤ 0.25 |
| RPTQ | ≤ 0.25 |
| VSGI | ≤ 0.25 |
| EGHC | ≤ 0.25 |
| KQED | ≤ 0.25 |
| FCWG | ≤ 0.25 |
| VRLR | 0.319 |
| DSGR | ≤ 0.25 |
| RLTV | ≤ 0.25 |
| PNPK | ≤ 0.25 |
| RHLP | ≤ 0.25 |
| GQVK | ≤ 0.25 |
| WDLS | ≤ 0.25 |
| WAGR | ≤ 0.25 |
| FRHE | ≤ 0.25 |
| TTNH | 12.2 |
| ENCT | ≤ 0.25 |
| PEWP | ≤ 0.25 |
| TMGG | 15.7 |
| NEQD | ≤ 0.25 |
| RDVY | ≤ 0.25 |
| TCQT | 3.19 |

| Variant | enrichment ratio |
| --- | --- |
| PSSD | ≤ 0.25 |
| RTNI | ≤ 0.25 |
| FCIS | ≤ 0.25 |
| AECG | ≤ 0.25 |
| WGNS | ≤ 0.25 |
| TTET | ≤ 0.25 |
| PERM | ≤ 0.25 |
| QCGT | ≤ 0.25 |
| VQVR | ≤ 0.25 |
| TDEL | ≤ 0.25 |
| KVWN | ≤ 0.25 |
| IFHM | ≤ 0.25 |
| FITH | ≤ 0.25 |
| FHHG | ≤ 0.25 |
| THLD | 1.29 |
| YFMS | ≤ 0.25 |
| VMKD | ≤ 0.25 |
| HYNI | ≤ 0.25 |
| QQLA | ≤ 0.25 |
| HFMG | ≤ 0.25 |
| CSCL | 16.1 |
| VMTK | ≤ 0.25 |
| QKCL | ≤ 0.25 |
| HYMY | 2.85 |

| Variant | enrichment ratio |
| --- | --- |
| TQQD | 4.47 |
| TVFR | ≤ 0.25 |
| RCHP | ≤ 0.25 |
| AHTG | ≤ 0.25 |
| LDLW | ≤ 0.25 |
| WIVG | ≤ 0.25 |
| PNHR | ≤ 0.25 |
| TYWG | ≤ 0.25 |
| GIVW | ≤ 0.25 |
| WSPY | ≤ 0.25 |
| YDYG | ≤ 0.25 |
| PKPM | ≤ 0.25 |
| GNCY | 4.37 |
| QFRD | ≤ 0.25 |
| GMMM | ≤ 0.25 |
| IPTR | ≤ 0.25 |
| VFWM | ≤ 0.25 |
| RACH | ≤ 0.25 |
| RLVH | ≤ 0.25 |
| DFIA | ≤ 0.25 |
| NFWY | ≤ 0.25 |
| PPFE | ≤ 0.25 |
| NEFH | ≤ 0.25 |
| DFVA | ≤ 0.25 |

| Variant | enrichment ratio |
| --- | --- |
| QSKC | ≤ 0.25 |
| QPYI | ≤ 0.25 |
| SSKP | ≤ 0.25 |
| IDWR | ≤ 0.25 |
| MDIH | ≤ 0.25 |
| IWKG | ≤ 0.25 |
| RDIH | ≤ 0.25 |
| PHCW | ≤ 0.25 |
| AKIL | 18.4 |
| NKTH | ≤ 0.25 |
| GIFI | ≤ 0.25 |
| LMGE | ≤ 0.25 |
| KDCI | ≤ 0.25 |
| FKCG | ≤ 0.25 |
| NNMT | ≤ 0.25 |
| VLYV | ≤ 0.25 |
| ERHW | ≤ 0.25 |
| WDDP | ≤ 0.25 |
| WVWT | ≤ 0.25 |
| VRWE | ≤ 0.25 |
| SMCL | 16.6 |
| SYYH | ≤ 0.25 |
| HNHH | ≤ 0.25 |
| NLRD | ≤ 0.25 |

| Variant | enrichment ratio |
| --- | --- |
| RHIH | ≤ 0.25 |
| NNVV | ≤ 0.25 |
| RAMV | ≤ 0.25 |
| MVLH | ≤ 0.25 |
| TDTC | 10.7 |
| IQCR | ≤ 0.25 |
| FMDH | ≤ 0.25 |
| MICR | ≤ 0.25 |
| LHHW | ≤ 0.25 |
| VVRE | ≤ 0.25 |
| FWSG | ≤ 0.25 |
| VVRL | ≤ 0.25 |
| HGFD | ≤ 0.25 |
| GGMF | ≤ 0.25 |
| TKYI | 2.52 |
| YGNC | ≤ 0.25 |
| PIRT | ≤ 0.25 |
| VNNG | ≤ 0.25 |
| WRWG | ≤ 0.25 |
| TPVT | ≤ 0.25 |
| GTVY | ≤ 0.25 |
| DDMT | ≤ 0.25 |
| WTTD | ≤ 0.25 |
| LDVL | ≤ 0.25 |

| Variant | enrichment ratio |
| --- | --- |
| KGHD | ≤ 0.25 |
| LWRV | ≤ 0.25 |
| YWPN | ≤ 0.25 |
| PTMQ | ≤ 0.25 |
| RKLN | ≤ 0.25 |
| ISCD | ≤ 0.25 |
| GQAY | ≤ 0.25 |
| SSWR | ≤ 0.25 |
| SMAV | 5.92 |
| AGDL | ≤ 0.25 |
| TNWF | 1.29 |
| IEVL | ≤ 0.25 |
| YEVN | ≤ 0.25 |
| SSKR | ≤ 0.25 |
| TPIY | ≤ 0.25 |
| EALG | ≤ 0.25 |
| WVQP | ≤ 0.25 |
| WLWW | ≤ 0.25 |
